Source: PubChem BioAssay (Tox21)
“And” between values parts separate entries of the source, which are not always exact repeats. Equal entries are not always repeated. The inconclusive results got no clear call from the source; some entries with a clear call stand among them for comparison. A potency beside an inconclusive call is a rough fit, not a confirmed value. More than one record can exist for a structure, and the calls need not agree. The source made the active and inactive calls. Calls come from the whole dose curve; as a rule, active = well fitted curve in the direction sought with a large enough effect in the repeat runs; inconclusive = weak or mixed curves; inactive = no such curve, though single readings can be large; an effect the other way counts as inactive or inconclusive.

assay: A CellTox Green Cytotoxicity Assay to monitor cytotoxicity in HEK293 cells - 16 hour (AID 1224888); details: CellTox Green fluorescence; series mostly up to 76.8 µM; activity change: at the top concentration; note: nearly all actives have a fitted effect of over 35% in size
Summary of the method: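 Fluorescence from a DNA-binding dye excluded by viable cells was measured repeatedly in the same HEK293 wells (600 cells/well) during continuous compound exposure at 37 C. Each assay gives one read point: 0, 8, 16, 24, 32 or 40 h.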
% is set by controls: 0 for no effect and ±100 for the full control effect; potency is the fitted concentration of half-maximal effect; tags give direction and shape of the fitted curve.

Q: For `COc1ccc(-c2coc3cc(O)ccc3c2=O)cc1`, which Potency is on record?
A: Its Potency is inconclusive: 1.55 µM [activator, partial curve].

Q: Which Potency does the source give for `CCCC(C)c1ccccc1O` (configuration not stated) here?
A: Its Potency is inconclusive: 54.9 µM [activator, single point].

Q: Which “activity change” value does the source give for `Cc1cc(C(=C2C=CC(=Nc3ccc(S(=O)(=O)O)cc3S(=O)(=O)O)C=C2)c2ccc(Nc3ccc(S(=O)(=O)O)cc3)cc2)ccc1N` here?
A: The value was inactive: -5.6% [at 35.3 µM, stronger effect = higher value].

Q: With `O=C(C(=O)c1ccccc1)c1ccccc1` as the compound, how does the “activity change” value read?
A: The value was inactive: 4.95%.

Q: For `C=O`, which “activity change” value is on record?
A: The value was inactive: -5.43%.

Q: Which Potency does the source give for `C=CC(C)(CCC=C(C)C)OC(=O)/C=C/c1ccccc1` (configuration not stated) here?
A: Its Potency is active: 27.5 µM.

Q: Which “activity change” value does the source give for `CC(Oc1cc(Cl)ccc1Cl)C(=O)O` (configuration not stated) here?
A: Its value is inactive: 3.76%.

Q: Which “activity change” value does the source give for `Cc1cc(SC2=C(O)C[C@@](CCc3ccc(N)cc3)(C(C)C)OC2=O)c(C(C)(C)C)cc1CO` here?
A: Its value is inactive: -11.6%.

Q: For `CC(C)(C)OCC1CO1` (configuration not stated), which “activity change” value is on record?
A: Its value is inactive: -5.35%.

Q: With `Nc1ccc2cc(S(=O)(=O)O)ccc2c1` as the compound, how does the “activity change” value read?
A: Its value is inactive: -3.74%.

Q: For `CC(CCC(=O)O)(c1ccc(O)cc1)c1ccc(O)cc1`, which Potency is on record?
A: The Potency was “inactive”.

Q: Which “activity change” value does the source give for `CCC(=O)Nc1ccc(O)cc1` here?
A: The value was inactive: 4.73% [at 35.3 µM, stronger effect = higher value].

Q: With `CCCc1c(OCCCCc2nn[nH]n2)ccc(C(C)=O)c1O` as the compound, how does the Potency read?
A: Its Potency is inconclusive: 15.1 µM [activator, partial curve, poor fit].

Q: For `Cc1ccc(N)cc1S(=O)(=O)O`, which Potency is on record?
A: Its Potency is inconclusive: 61.6 µM [activator, single point].

Q: With `Cc1c(C(=O)O)cccc1[N+](=O)[O-]` as the compound, how does the “activity change” value read?
A: Its value is inactive: -19.9%.

Q: With `CC1(C)CCC[C@]2(C)[C@H]3CC(=O)O[C@]3(C)CC[C@@H]12` as the compound, how does the Potency read?
A: Its Potency is inconclusive: 49 µM [activator, partial curve, poor fit].

Q: For `CC(C)c1ccc(O)c(C(C)C)c1`, which Potency is on record?
A: Its Potency is active: 19.5 µM.

assay: qHTS RealTime-Glo MT Cell Viability Assay in HepG2 cells - 0 hour (AID 1224889); details: RealTime-Glo luminescence; series mostly up to 76.8 µM; activity change, negative = cytotoxicity: at the top concentration; note: nearly all actives have a fitted effect of over 50% in size
Summary of the method: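 qHTS, HepG2, 600 cells/well, RealTime-Glo (NanoLuc + prosubstrate) added with cells; 5 h preincubation; DMSO compound addition; 37 C; luminescence at 0/8/16/24/32/40 h.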

Q: With `CCCCOCCOC(=O)COc1nc(Cl)c(Cl)cc1Cl` as the compound, how does the Potency read?
A: Its Potency is inconclusive: 21.9 µM [cytotoxic, single point].

Q: Which Potency does the source give for `C=C(C)C(=O)OCCCCCC` here?
A: The Potency was “inactive”.

Q: With `Cc1ccccc1N=Nc1ccc(N=Nc2c(O)ccc3ccccc23)c(C)c1` as the compound, how does the “activity change, negative = cytotoxicity” value read?
A: Its value is inactive: -0.537% [at 35.3 µM].

Q: With `Cc1cc(C(=C2C=CC(=Nc3ccc(S(=O)(=O)O)cc3S(=O)(=O)O)C=C2)c2ccc(Nc3ccc(S(=O)(=O)O)cc3)cc2)ccc1N` as the compound, how does the Potency read?
A: The Potency was inconclusive: 28.4 µM [cytotoxic, partial curve, poor fit].

Q: Which Potency does the source give for `C=CCOCC(O)CS(=O)(=O)O` (configuration not stated) here?
A: Its Potency is inconclusive: 49.7 µM [cytotoxic, partial curve, poor fit].

Q: For `CN1C[C@H]2c3ccccc3Oc3ccc(Cl)cc3[C@@H]2C1`, which Potency is on record?
A: Its Potency is inconclusive: 26.8 µM [rising, partial curve, poor fit].

Q: With `CCCCC(=O)O[C@]1(C(=O)CO)[C@H](C)C[C@H]2[C@@H]3CCC4=CC(=O)C=C[C@]4(C)[C@@]3(F)[C@@H](O)C[C@@]21C` as the compound, how does the Potency read?
A: The Potency was inconclusive: 10.7 µM [cytotoxic, full curve].

Q: With `Cc1cc(SC2=C(O)C[C@@](CCc3ccc(N)cc3)(C(C)C)OC2=O)c(C(C)(C)C)cc1CO` as the compound, how does the Potency read?
A: The Potency was active: 19.5 µM.

Q: For `Cc1oc(-c2ccccc2)nc1CCOc1cccc2c1ccn2CCC(=O)O`, which Potency is on record?
A: The Potency was inconclusive: 49 µM [cytotoxic, partial curve, poor fit].

Q: For `O=c1n(CCCN2CCN(c3cccc(Cl)c3)CC2)nc2ccccn12`, which Potency is on record?
A: The Potency was active: 49 µM.

Q: With `CC(=O)OCC(=O)[C@@]1(O)[C@H](C)C[C@H]2[C@@H]3CCC4=CC(=O)C=C[C@]4(C)[C@@]3(F)[C@@H](O)C[C@@]21C` as the compound, how does the Potency read?
A: Its Potency is active: 9.52 µM.

Q: With `CCCCCCCCCCCCCCCBr` as the compound, how does the “activity change, negative = cytotoxicity” value read?
A: Its value is inactive: -15% [at 35.3 µM].

Q: With `C[C@]12CCC(=O)C=C1CC[C@@H]1[C@@H]2C(=O)C[C@@]2(C)[C@H]1CC[C@]2(O)C(=O)CO` as the compound, how does the Potency read?
A: The Potency was active: 5.49 µM and inconclusive: 10.7 µM [cytotoxic, partial curve].

Q: Which activity change, negative = cytotoxicity does the source give for `O=C1c2ccccc2C(=O)c2cc(Cl)ccc21` here?
A: The activity change, negative = cytotoxicity was inactive: 1.38% [at 6.97 µM].

Q: With `CCC(C)NC(N)=O` (configuration not stated) as the compound, how does the “activity change, negative = cytotoxicity” value read?
A: Its value is inactive: 3.38%.
